Experimental findings from paper PMC6212790 are described below.

The other results are listed elsewhere or left out. At the low end of the ranking the order means little.

This assay deals with T1, GST-Rok (full length) (UniProt O34857).
T1 sequence: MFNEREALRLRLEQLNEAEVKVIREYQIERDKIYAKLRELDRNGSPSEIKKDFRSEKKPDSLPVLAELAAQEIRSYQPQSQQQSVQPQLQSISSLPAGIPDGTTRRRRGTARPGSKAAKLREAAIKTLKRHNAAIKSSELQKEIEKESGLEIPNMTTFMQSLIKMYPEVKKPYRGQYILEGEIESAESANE
Nature of the assay: protein binding microarray.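 Note: rank score from −0.5 (least bound) to 0.5 (best bound).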 The settings on record: Rok is a gene silencer of Bacillus subtilis; high values mean tight binding; most listed sequences are background and not binding sites; double strand, one strand shown.
Turning to ATGTAAGA, the binding signal was 0.118 E-score.
In the case of GATAAGCA it was 0.159 E-score.
The figure for CCCTGGCC is -0.399 E-score; for GCACAAAA it is 0.186 E-score; for GACCTAAC it is 0.0674 E-score.
AAACAACG: the binding signal came to 0.0649 E-score.
The figure for GCTGGTTA is 0.189 E-score; for ATCCGCGC it is -0.0881 E-score; for TCGCATAA it is 0.093 E-score.
The figure for AGGCTAGG is -0.114 E-score; for AGCCGCCC it is -0.278 E-score.
The figure for CGGTAGAG is 0.0632 E-score; for ACTTAAAG it is -0.164 E-score; for ACGACATA it is 0.137 E-score.
With GTATACGA, the binding signal worked out at 0.179 E-score.
In the case of AGCGTCCT it was -0.316 E-score.
The figure for CTTATGGA is -0.0622 E-score; for AAAGTTTA it is -0.00448 E-score.
In the case of AATTTTAG it was 0.222 E-score; in that of GCTTTAAC, -0.15 E-score.
With ATTAGCGA, the binding signal is 0.0888 E-score.
The figure for CAGTTTAA is 0.0735 E-score; for GGTGCTGA it is -0.101 E-score; for AGGTGGAC it is -0.266 E-score.
For CCGTTTAA, the binding signal is -0.0159 E-score.
The figure for CCGCCCGG is -0.388 E-score; for GGTGTACA it is 0.0307 E-score; for ACATGAGG it is -0.207 E-score.
In the case of GATGAGGC it was -0.228 E-score; in that of CAGTCTTA, 0.158 E-score; in that of AGCAGTGA, 0.0135 E-score.
In the case of CATTTTGA it was 0.185 E-score.
As to AAGATACA, the binding signal turned out to be 0.186 E-score.
In the case of CCAAGCAA it was 0.0204 E-score; in that of GGAGCACC, -0.252 E-score.
In the case of CTGTGCAA it was 0.0148 E-score; in that of ACCATAAG, 0.172 E-score.
As for AGTTTCGG, the binding signal was 0.147 E-score.
In turn, AGAAGAAA showed a binding signal of -0.121 E-score.
CTCAAGCC yielded a binding signal of -0.146 E-score.
In the case of CAATCCTC it was -0.0929 E-score; in that of GGAGGTCA, -0.359 E-score.
Sequence TCAGTTCA yielded a binding signal of -0.0671 E-score.
Sequence CGTGAGAC yielded a binding signal of -0.125 E-score.
The figure for AATAAATG is 0.295 E-score; for ACTGTCGG it is -0.0251 E-score; for CCGTTGAG it is -0.0934 E-score.
The figure for AGATGCTC is -0.129 E-score; for CTAGGCCA it is -0.176 E-score; for AGCTGGGC it is -0.312 E-score.
In the case of ATTCTCAA it was 0.0615 E-score; in that of AGACAGGA, -0.136 E-score; in that of ACACATAG, 0.184 E-score.
In turn, ATCAATGG returned a binding signal of 0.0191 E-score.
The figure for ACAAAGGA is -0.106 E-score.
The figure for AAGCAACA is -0.00135 E-score; for TGTCAAAA it is -0.0181 E-score; for GCTTGCCC it is -0.316 E-score.
AGGTGGGG displayed a binding signal of -0.461 E-score.
On to ACACCGGG, for which the binding signal is -0.333 E-score.
In the case of CTGACTTA it was 0.127 E-score.
Consider CCTCAAAC, for which the binding signal was -0.161 E-score.
CGGCCACC came in with a binding signal of -0.242 E-score.
The sequence GGTTCTCA gave a binding signal of -0.09 E-score.
The figure for ATTGAGCG is -0.126 E-score; for CGCCGATA it is 0.205 E-score; for CCCCCGAG it is -0.409 E-score.
The figure for CAAGAGTC is -0.0869 E-score; for ACTACCAT it is 0.352 E-score.
Regarding GGCTGATA, the binding signal is -0.0429 E-score.
The figure for ACATGGAA is 0.163 E-score; for ATCTAGTG it is 0.307 E-score.
Sequence CACTTATC gave a binding signal of 0.23 E-score.
The figure for CTATAAAA is 0.23 E-score.
Regarding CGCTTTAG, the binding signal is -0.0872 E-score.
The sequence GAATTCGC gave a binding signal of 0.0821 E-score.
The figure for ACCCTTCA is -0.24 E-score; for AATGTTGG it is 0.137 E-score.
Consider CCTCTTCG, for which the binding signal was -0.295 E-score.
In the case of CAGAATCC it was -0.107 E-score.
In turn, ACGTGCAA yielded a binding signal of 0.055 E-score.
In the case of CCCATAGA it was -0.0828 E-score; in that of GATACGTA, 0.245 E-score; in that of AACCGTAC, 0.0539 E-score.
The figure for CCATTAGA is 0.0381 E-score.
Take AAGAAGTG: the binding signal worked out at 0.147 E-score.
With TTCGCGAA, the binding signal came to 0.0408 E-score.
In the case of TCTTCTCA it was 0.009 E-score.
The figure for ACTGCTTA is 0.21 E-score; for ACTGTTAG it is 0.196 E-score; for ACAGATCT it is 0.124 E-score.
In turn, ACAGCATA came in with a binding signal of 0.0549 E-score.
CATACCCC had a binding signal of -0.0589 E-score.
The figure for CCTGTAAC is 0.0187 E-score; for ATATTCAA it is 0.199 E-score.
The figure for GCCTAGTA is 0.0849 E-score.
On to AGGTGAAC, for which the binding signal is -0.0811 E-score.
GACGTCAC showed a binding signal of -0.144 E-score.
The sequence AGGTCGCA registered a binding signal of -0.234 E-score.
The figure for AGCTGCAA is -0.0171 E-score; for CCTGGCCC it is -0.172 E-score; for CACTTCAG it is -0.0539 E-score.
In the case of AGAGCTCG it was -0.14 E-score; in that of ATGTACTC, 0.209 E-score; in that of GATTGCCC, -0.238 E-score.
The sequence AGCGGTTA registered a binding signal of -0.138 E-score.
As for CGGTGAAG, the binding signal is -0.168 E-score.
In the case of ACTTTGCG it was 0.202 E-score.
The figure for GAAAGCCC is -0.268 E-score; for AAAATTCC it is -0.0798 E-score; for GATAAGCC it is -0.213 E-score.
In turn, CCTAACCA came in with a binding signal of -0.243 E-score.
In the case of GAGCAGGA it was -0.33 E-score.
In the case of CCTGTCTC it was -0.264 E-score; in that of GGCCGCCC, -0.365 E-score.
The figure for ATGATAAA is 0.24 E-score; for TATTGCGA it is 0.172 E-score.
The sequence GGATTCCC gave a binding signal of -0.187 E-score.
AGGGTACA displayed a binding signal of -0.132 E-score.
The figure for AGCGGATC is -0.112 E-score.
As for CATCATGA, the binding signal was determined as 0.125 E-score.
In the case of AGTTTACC, the binding signal was 0.22 E-score.
The figure for GGACATGA is -0.24 E-score.
In the case of GATTGGGA it was -0.296 E-score.
In the case of TACTGTGA it was 0.167 E-score; in that of ACTACTCG, 0.187 E-score; in that of GTTCCGGA, -0.141 E-score.
For the sequence GTTCGGAA, the binding signal is -0.0385 E-score.
The figure for GCCGAGGC is -0.19 E-score; for AATCCCTG it is -0.089 E-score.
The sequence GCGGCACC came in with a binding signal of -0.235 E-score.
In the case of ATAAAAGC it was 0.0546 E-score; in that of AGCGCTAA, 0.0455 E-score.
The figure for GACTGTGC is -0.12 E-score.
The figure for CCTACTCC is -0.13 E-score; for GACGGTCC it is -0.264 E-score; for AGGCGTGG it is -0.162 E-score.
In the case of TAGGCTAA, the binding signal is -0.112 E-score.
Regarding CGGATCGA, the binding signal is -0.0589 E-score.
The figure for ATGGTGGC is -0.127 E-score; for GTACACAC it is -0.0444 E-score.
The figure for GTCGAGTA is 0.087 E-score.
In the case of ATGTCGGA it was 0.0398 E-score; in that of CGCTATAC, -0.0281 E-score; in that of CAAGGTCG, -0.126 E-score.
The sequence CTTGATGC had a binding signal of -0.158 E-score.
In the case of TCGGTGCA it was -0.0568 E-score.
In the case of ATACATAG it was 0.391 E-score; in that of AAATGGTC, 0.025 E-score; in that of CACCCCTG, -0.28 E-score.
In turn, CACGGCGC displayed a binding signal of -0.218 E-score.
In the case of AATTTCTA it was 0.344 E-score; in that of CAAACGAG, -0.0893 E-score.
In the case of TGCCGGCA it was -0.254 E-score; in that of ACAATGTA, 0.275 E-score.
The sequence CACTTACC came in with a binding signal of -0.0246 E-score.
The figure for ATGGCGCA is -0.117 E-score; for ATTTTGTA it is 0.232 E-score; for CAGGTTCA it is -0.104 E-score.
In the case of CAGATCGC it was -0.176 E-score; in that of AAAGGACT, -0.179 E-score.
In the case of CGGCTGAC it was -0.0945 E-score; in that of CGCATTCC, -0.192 E-score.
Regarding CACGTATA, the binding signal worked out at 0.243 E-score.
The figure for AGTAAGTA is 0.262 E-score; for CCAGCCCA it is -0.331 E-score; for ACGCACTA it is 0.204 E-score.
In the case of AGCACCGG it was -0.275 E-score; in that of CTGATATA, 0.204 E-score.
The figure for AAGTCCAA is -0.111 E-score; for ATCGGAGG it is -0.368 E-score; for CTCAGCCA it is -0.183 E-score.
